# Reference: US4897384A, “Drug preparations of reduced toxicity” (priority 1986, dated 1990)
# Like-named read-outs stand apart in the source and are kept apart here. Numbered stars: 1 amine (or outer) side, 2 acyl side, 3 side chain; on linkers, the order of the positions; unused ones are H or OH. Bridge positions count the residues as written; N and C are the ends. Square brackets hold non-standard residues; d marks the D form. Peptide text beside a SMILES is read from it. * marks the point of attachment. X1 = NC1=N[C@@H]([C@H](N[*:1])C(=O)[*:2])C[C@H](O)N1; ΔAla(Z-3-ureido) = NC(=O)N/C=C(\N)C(=O)O; β3hOrn = NCCC[C@H](N)CC(=O)*; Dap = NC[C@H](N)C(=O)O
# Columns and labels:
# [1] = Precipitation of ligand when mixed with the aminoglycoside; details: mixed with streptomycin in distilled water
# C. albicans = test: Minimum inhibitory concentration for C. albicans (Table VI); type: cell-based; details: 50% growth inhibition, overnight 35° C.
# L cells = test: Cytotoxicity for L-cells (Table VI); type: cell-based; details: mouse, 72 h
# Swiss Webster mice [2] = details: for Lethality of ligand administered without streptomycin: ligand alone, s.c.; for Effectiveness in reducing aminoglycoside toxicity (in words): mouse, in vivo; for Lethality No. Dead/No. Inoculated / Percent Lethality: with streptomycin 1000 mg/kg s.c.
# C-reactive protein = details: cited from earlier work
# neuromuscular junction = details: in vivo; cited from earlier work
# kidney = details: in vivo; cited from earlier work
# [3] = in vitro; cited from earlier work
# [4] = Solubility, precipitation and stability of amphotericin B preparations; details: CHCl3 added dropwise to aqueous solution
# [5] = crystal structure analysis; cited from earlier work
# in vivo = details: mouse, sc, 1000 mg/kg
# [6] = Acute lethality of subcutaneous streptomycin with and without ligand (Table I); type: in vivo, mouse (Swiss Webster); details: mouse, in vivo, sc, 1000 mg/kg, read-out: Percent Lethality
# Swiss Webster mice [7] = test: as above; type: in vivo, mouse (Swiss Webster)
# [8] = in vitro; cited from earlier work; remark: listed apart in the source
# DNA = details: cited from earlier work
# Swiss Webster mice [9] = test: Appearance of blue tail after intravenous administration of amphotericin B preparations (Table V); type: in vivo, mouse (female Swiss Webster); details: i.v. tail vein, groups of four mice
# [10] = Cytotoxicity for L-cells (Table VI); type: cell-based; details: mouse
# [11] = molar ratio streptomycin:ligand 1:3
# [12] = molar ratio streptomycin:ligand 1:1
# [13] = administered 0 min after inoculation of phosphorylcholine, different sites, 1:3, 1000 mg/kg s.c.
# [14] = administered 10 min after inoculation of phosphorylcholine, different sites, 1:3, 1000 mg/kg s.c.
# [15] = administered 30 min after inoculation of phosphorylcholine, different sites, 1:3, 1000 mg/kg s.c.
# [16] = streptomycin alone (control), 1000 mg/kg s.c.
compound,measurement,setting,value
egg phosphatidic acid,Precipitation when mixed with the aminoglycoside,[1],precipitated out of solution
polyethylene glycol-cholesterol [PEG-cholesterol],"Minimum Inhibitory Concentration of Amphotericin B, C. albicans",C. albicans,"> 25,000 μg/ml"
same,"Minimum Inhibitory Concentration of Amphotericin B, L cells",L cells,> 500.0 µg/mL
"NCCOP(=O)(O)O [Phosphorylethanolamine, phosphorylethanolamine]",Lethality of ligand administered without streptomycin,Swiss Webster mice [2],0/7
same,Effectiveness in reducing aminoglycoside toxicity (in words),Swiss Webster mice [2],less effective
same,Lethality No. Dead/No. Inoculated,Swiss Webster mice [2]; [11],4/7
same,Binding to C-reactive protein (in words),C-reactive protein,bind less strongly
NC[C@H]1O[C@H](O[C@H]2[C@H](O)[C@@H](O[C@H]3O[C@H](CO)[C@@H](O)[C@H](N)[C@H]3O)[C@H](N)C[C@@H]2N)[C@H](O)[C@@H](O)[C@@H]1O [kanamycin],Neuromuscular reactions (in words),neuromuscular junction,particularly
NC[C@@H]1O[C@H](O[C@H]2[C@@H](O)[C@H](O[C@@H]3[C@@H](O)[C@H](N)C[C@H](N)[C@H]3O[C@H]3O[C@H](CO)[C@@H](O)[C@H](O)[C@H]3N)O[C@@H]2CO)[C@H](N)[C@@H](O)[C@@H]1O [paromomycin],Neuromuscular reactions (in words),neuromuscular junction,to a lesser extent
neomycin,Nephrotoxicity (in words),kidney,the most nephrotoxic aminoglycoside
same,Neuromuscular reactions (in words),neuromuscular junction,particularly
"C[C@@H]1[C@H](O)[C@@H](C)/C=C/C=C/C=C/C=C/C=C/C=C/C=C/[C@H](O[C@@H]2O[C@H](C)[C@@H](O)[C@H](N)[C@@H]2O)C[C@@H]2O[C@](O)(C[C@@H](O)C[C@@H](O)[C@H](O)CC[C@@H](O)C[C@@H](O)CC(=O)O[C@H]1C)C[C@H](O)[C@H]2C(=O)O [Amphotericin B, amphotericin B]",Affinity for ergosterol relative to cholesterol,[3],approximately ten times greater
same,Stability of complex on removal of PEG-cholesterol,[4],precipitation of amphotericin B in the aqueous phase
O=S(=O)(O)OC1C(OS(=O)(=O)O)C(OS(=O)(=O)O)C(OS(=O)(=O)O)C(OS(=O)(=O)O)C1OS(=O)(=O)O (stereo not shown) [inositol hexasulfate],Precipitation when mixed with the aminoglycoside,[1],precipitated out of solution
N.N.[Cl][Pt][Cl] [cisplatin],Binding to guanosine and related inosine derivatives (in words),[5],strong binding
"O=C(O)C(O)COP(=O)(O)O (stereo not shown) [Phosphoglyceric acid, phosphoglyceric acid]",Lethality No. Dead/No. Inoculated,Swiss Webster mice [2]; [11],3/8
same,mortality,in vivo,37.5%
lysophosphatidylcholine [Egg Lysophosphatidylcholine],Lethality No. Dead/No. Inoculated,Swiss Webster mice [2]; [12],0/7
same,Percent Lethality,Swiss Webster mice [2]; [12],0%
same,Percent Lethality,Swiss Webster mice [2]; [11],0%
same,Binding to C-reactive protein (in words),C-reactive protein,bind strongly
"C[N+](C)(C)CCOP(=O)([O-])O [Phosphorylcholine, phosphorylcholine]",mortality,in vivo,0%
"NC(COP(=O)(O)O)C(=O)O (stereo not shown) [Phosphorylserine, phosphorylserine]",Lethality No. Dead/No. Inoculated,Swiss Webster mice [2]; [11],4/8
same,mortality,in vivo,50%
"[H]/N=C(/N)N[C@H]1[C@H](O)[C@@H](O)[C@H](O[C@@H]2O[C@@H](C)[C@](O)(C=O)[C@H]2O[C@@H]2O[C@@H](CO)[C@H](O)[C@@H](O)[C@@H]2NC)[C@@H](N/C(N)=N\[H])[C@@H]1O [Streptomycin, streptomycin]",mortality,[6]; [13],62.5%
same,mortality,[6]; [14],62.5%
same,mortality,[6]; [15],85.7%
same,mortality,[6]; [16],87.5%
same,Reduction of aminoglycoside toxicity (in words),"Swiss Webster mice [7]; 0.6M ammonium acetate, or ligand administered before the aminoglycoside",not effective in reducing toxicity
same,Lethality No. Dead/No. Inoculated,Swiss Webster mice [7]; [13],5/8
same,Lethality No. Dead/No. Inoculated,Swiss Webster mice [7]; [14],5/8
same,Lethality No. Dead/No. Inoculated,Swiss Webster mice [7]; [15],6/7
same,Lethality No. Dead/No. Inoculated,Swiss Webster mice [7]; [16],7/8
"C[N+](C)(C)CCO.[Cl-] [Choline chloride, choline chloride]",Lethality of ligand administered without streptomycin,Swiss Webster mice [2],0/8
same,Lethality No. Dead/No. Inoculated,Swiss Webster mice [2]; [11],7/7
same,mortality,in vivo,100%
NC[C@H]1O[C@H](O[C@H]2[C@H](O)[C@@H](O[C@H]3O[C@H](CO)[C@@H](O)[C@H](N)[C@H]3O)[C@H](N)C[C@@H]2N)[C@H](N)C[C@@H]1O [tobramycin],Neuromuscular reactions (in words),neuromuscular junction,to a lesser extent
C[N+](C)(C)CCOP(=O)([O-])OCC(O)CO (stereo not shown) [glycerolphosphorylcholine],Effectiveness in reducing aminoglycoside toxicity (in words),Swiss Webster mice [2],less effective
same,Binding to C-reactive protein (in words),C-reactive protein,bind less strongly
"O=P(O)(O)O[C@@H]1[C@@H](O)[C@H](O)[C@@H](O)[C@H](O)[C@@H]1O [Inositol monophosphate, inositol monophosphate]",Lethality No. Dead/No. Inoculated,Swiss Webster mice [2]; [12],5/8
same,mortality,in vivo,62.5%
COc1cccc2c1C(=O)c1c(O)c3c(c(O)c1C2=O)C[C@@](O)(C(=O)CO)C[C@@H]3O[C@H]1C[C@H](N)[C@H](O)[C@H](C)O1 [adriamycin],Association constant cardiolipin/adriamycin,[8],about 1.6×10^6 mol^-1
same,Association constant DNA/adriamycin,DNA,about 2.4×10^6 mol^-1
"C[C@H](CCC(=O)O)[C@H]1CC[C@H]2[C@@H]3CC[C@@H]4C[C@H](O)CC[C@]4(C)[C@H]3C[C@H](O)[C@]12C [DOC, deoxycholate]",Appearance of blue tail (in words),Swiss Webster mice [9],limited blue tail effect
same,"Minimum Inhibitory Concentration of Amphotericin B, C. albicans",C. albicans,"> 5,000 μg/ml"
same,CC50 at 72 h,[10],250 µg/mL
gentamycin,Nephrotoxicity (in words),kidney,most nephrotoxic of the commonly used drugs
same,Neuromuscular reactions (in words),neuromuscular junction,to a lesser extent
NCCC[C@H](N)CC(=O)N[C@H]1CNC(=O)[C@H]([C@H]2C[C@H](O)NC(N)=N2)NC(=O)/C(=C/NC(N)=O)NC(=O)[C@H](CO)NC(=O)[C@H](CO)NC1=O [viomycin] (β3hOrn-[Dap]SS[ΔAla(Z-3-ureido)][X1]; lactam 1-C),Neuromuscular reactions (in words),neuromuscular junction,to a lesser extent
